Whole data set: some 16,000 sequences, median “Z-score” near -0.37, cut for the highest 2% near 3.1. Some of the results follow.
The sequences below were run on RBM10 RRM1-ZnF-RRM2 (GST-tagged construct) (assay: RNAcompete 7-mer binding Z-score; higher = stronger binding preference).
How it was run: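 Each heptamer motif was given a one-sided Z-score for enrichment across the probes that contained it. GST-tagged RBM10 constructs (20 pmol) were combined with 1.5 nmol of a designed pool of 241 399 RNAs of up to 41 nt, transcribed from microarray-derived DNA templates. Binding took place in 1 ml Hepes pH 7.8 buffer containing KCl, NaCl, glycerol, DTT, BSA and glutathione Sepharose beads for 30 min at 4°C. After four 2-min washes at 4°C, bound RNA was identified by microarray hybridisation.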

Row | Sequence | RNAcompete 7-mer binding Z-score
1 | UAGGAUA | 1.73
2 | CAUGUGA | 0.101
3 | UCAUGUU | -0.431
4 | UGGGUGU | 2.62
5 | GUAACCA | 0.00944
6 | GCGUCAC | -0.118
7 | AACGAAA | 0.0786
8 | ACUCCAU | -0.748
9 | AGACUUA | -0.81
10 | CCUCCAC | -0.712
11 | AAGUCUC | -0.752
12 | UUUUUCC | -0.748
13 | AUCAGUU | -0.413
14 | AUUGGUU | 0.752
15 | UCCGGCU | -0.719
16 | CGCUCUA | -0.723
17 | AGUCGUA | 0.25
18 | UAGUAUG | 0.00944
19 | CCGUGCG | -0.264
20 | CUUGCAU | -0.919
21 | UAAGAAU | -0.067
22 | GAGCUAU | -0.202
23 | UGGUAAA | 1.02

Row | Sequence | RNAcompete 7-mer binding Z-score
24 | ACACGUU | -0.65
25 | UUGCGUA | -0.26
26 | CCGGUCG | -0.482
27 | CAGAAGG | 2.37
28 | UCAUACC | -0.748
29 | AGGUUUU | 0.396
30 | UAAGGUC | 0.508
31 | UUUUAGC | -0.686
32 | UCUAGAU | -0.657
33 | UUAAGUG | -0.00148
34 | GAUUAUG | 0.326
35 | CGGGCGG | 2.94
36 | AUGGGGU | 3.91
37 | CUACAAU | -0.661
38 | UUACCUC | -0.795
39 | ACCUGCG | -0.785
40 | CUUCCCG | -0.832
41 | AGUUCUG | -0.599
42 | ACGGUUG | 1.31
43 | CCAAAAU | -0.646
44 | CCUGAAA | -0.715
45 | GGCCUGA | -0.42
46 | UCCUCGU | -0.61

Row | Sequence | RNAcompete 7-mer binding Z-score
47 | UCGGUAA | 0.363
48 | UCUGGUA | -0.475
49 | CGUCUAA | -0.57
50 | UCGACAA | -0.289
51 | AUCAAAU | -0.694
52 | GAGACCA | -0.027
53 | GCUACGU | -0.205
54 | UGGGGCG | 2.66
55 | CUCAUUC | -0.923
56 | CUGCAUU | -0.788
57 | GAAAUCU | -0.46
58 | GGUAUUC | 0.243
59 | GCACACU | -0.49
60 | CCUAAUC | -0.876
61 | AUAAAAC | -0.355
62 | CAAGCCC | -0.806
63 | CGGCAUC | -0.304
64 | GGCGCAC | 0.17
65 | AAAACCG | -0.413
66 | AAAUAAG | 0.202
67 | CAUGUCC | -0.763
68 | UAUGUGC | -0.198
69 | ACAACUU | -0.708

Row | Sequence | RNAcompete 7-mer binding Z-score
70 | AACCCAA | -0.493
71 | UUUGCAU | -0.708
72 | ACCUUUC | -1.01
73 | GCGCAAC | -0.275
74 | AAUACCA | -0.311
75 | ACCAGGG | 1.81
76 | GCUCCAC | -0.675
77 | CCGCUAC | -0.868
78 | GACCGAA | -0.639
79 | CCAGCAU | -0.686
80 | UUGAGGA | 1.04
81 | CCACCGA | -0.49
82 | AGACGGA | 1.04
83 | AACUAAC | -0.679
84 | CAGUAUC | -0.318
85 | UACCACU | -0.566
86 | GAAAGCU | 0.0896
87 | CUUUGCA | -0.806
88 | UAUGCGG | 0.836
89 | CCUUGAA | -0.788
90 | GCCAACA | -0.289
91 | UAUUUGC | -0.752
92 | CGCCUGU | -0.901

Row | Sequence | RNAcompete 7-mer binding Z-score
93 | CUGCUAU | -0.752
94 | UUGAACG | 0.024
95 | CAAUGAU | -0.111
96 | CGACUUC | -0.865
97 | ACUCGGC | -0.73
98 | AAACGGC | 0.37
99 | CCCUCCA | -0.912
100 | AAGUUCG | -0.395
101 | AGACAGA | -0.162
102 | GUACUAG | 0.111
103 | ACGCGGA | 0.516
104 | UACAUAU | -0.457
105 | AAGUACA | 0.0786
106 | AUGUUGU | -0.373
107 | UUCAGUC | -0.628
108 | CGGGGUA | 3.42
109 | GGGUAUC | 2.16
110 | CGUUCUU | -0.774
111 | AUUUGCU | -0.806
112 | GAAGCAC | -0.0853
113 | AAGAGCA | 0.516
114 | GUAGACU | -0.358
115 | CGACUUA | -0.624

Row | Sequence | RNAcompete 7-mer binding Z-score
116 | CACGUUC | -0.719
117 | CUCCGAG | -0.555
118 | CGAUCGC | -0.69
119 | CACCGUU | -0.628
120 | UGGUUUC | 0.399
121 | CCCGCCG | -0.741
122 | UAUUAUU | -0.632
123 | CUACAGG | 0.341
124 | UUUCAUG | -0.417
125 | AUCUAGC | -0.573
126 | AGUUCAU | -0.723
127 | GACUCCA | -0.704
128 | CGAGUCC | -0.785
129 | AUGUCGG | 0.396
130 | AUACGAG | 0.181
131 | UGUCCUU | -0.883
132 | AAAUAUC | -0.643
133 | AAGCAGG | 2.17
134 | GUUAACG | 0.447
135 | AACUGAA | -0.388
136 | CAAGACA | -0.275
137 | CUAUCUG | -0.788
138 | GUACGUA | 0.454

Row | Sequence | RNAcompete 7-mer binding Z-score
139 | UCGCUCU | -0.646
140 | UGGGCUA | 1.26
141 | UCGACAG | -0.213
142 | UGUCGAA | -0.362
143 | GGAAGAA | 1.99
144 | UGUUGCA | -0.296
145 | CGUUCUC | -0.763
146 | AAACAUC | -0.592
147 | ACUCUGA | -0.908
148 | ACUGCCA | -0.646
149 | AUGUACC | -0.435
150 | AGAGUAG | 1.31
151 | GCGACAC | -0.027
152 | UAGGGGG | 3.4
153 | GCCUGCC | -0.541
154 | UGCCUAU | -0.766
155 | UCUGAAG | -0.562
156 | UCACUGU | -0.584
157 | UUCCACU | -0.701
158 | GCCUCGG | -0.187
159 | GAGAGCU | 0.447
160 | ACAUUUC | -0.806
161 | AACAUGA | -0.147

Row | Sequence | RNAcompete 7-mer binding Z-score
162 | CCAGUGA | -0.027
163 | CUGCCGC | -0.821
164 | GACGUGC | -0.26
165 | AACGUGC | 0.0386
166 | ACGGAUA | 1.72
167 | AUGAUAG | 0.807
168 | CUACGAA | -0.428
169 | GACAAGU | 0.148
170 | UUCACAG | -0.541
171 | CUCUAAU | -0.774
172 | GCCGUCC | -0.541
173 | AUAAGCA | 0.0641
174 | GGCAGAG | 2.18
175 | UUGUUCC | -0.664
176 | UCAGACU | -0.555
177 | CCAUCCU | -0.839
178 | GAGCAAG | 1.42
179 | CCUGUGG | 0.141
180 | CGGUUUA | -0.0488
181 | UCUCCGA | -0.836
182 | AUAAUAG | 0.243
183 | UGAAAUC | -0.38
184 | ACAAUAG | 0.607

Reference: the supplement of paper PMC5499739
